Assay results taken from the RNAGym collection of RNA variant scans (doi:10.1093/nar/gkz1192).
Read counts are not given, so values of variants with three or more changes are uncertain.

B1: CPEB3 Ribozyme (parent)
chain: UAACAGGGGGCCACAGCAGAAGCGUUCACGUCGCAGCCCCUGUCAGAUUCUGGUGAAUCUGCGAAUUCUGCUGUAUAUCUC

Variants of: B1
Test: self-cleavage, relative activity (ratio to wild type); higher = more cleavage; in vitro, sequencing
Method in brief: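 For each CPEB3 ribozyme variant, relative activity is its cleaved/total read fraction divided by the unmutated ribozyme's. Barcoded error-prone PCR libraries were transcribed by T7 RNA polymerase (5 hours, 37°C) and held in DNase I for 15 min before an EDTA stop, with cleavage occurring throughout. Template-switching reverse transcription and Illumina sequencing were used to read the RNAs. A 5-read minimum applied, and results are the mean of three batches.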

| Variant | self-cleavage |
| --- | --- |
| A35G G52C U54G | 1.28 |
| A35G G53C U60G U67C U72A | 0.35 |
| A35G G53C U67C U72C | 0.6 |
| A35G G53C U69A | 1.17 |
| A35G G53C U72A | 1.21 |
| A35G G53U U80C | 1.29 |
| A35G G55U A56G | 1.27 |
| A35G G61U A77U | 1.16 |
| A35G G61U U76C | 0.93 |
| A35G U41A A45U G53A U54A U78C | 0.12 |
| A35G U41A A47U U48C A56G | 0.07 |
| A35G U41A U43C A47G | 0.29 |
| A35G U41A U43G | 0.25 |
| A35G U41A U49C | 0.36 |
| A35G U41A U49C A56U U67A | 0.1 |
| A35G U41A U51G U54A | 0.49 |
| A35G U41A U54C A56U | 0.1 |
| A35G U41A U72A U74A | 0.95 |
| A35G U41A U78C | 0.34 |
| A35G U41C A45G U72C | 1.22 |
| A35G U41C A45U G46A U51C U60C | 0.17 |
| A35G U41C G46U U54C U67C G70A | 0.13 |
| A35G U41C G52A U54A G63A U67C | 0.67 |
| A35G U41C G61A | 1.17 |

| Variant | self-cleavage |
| --- | --- |
| A35G U41C U43C | 1.05 |
| A35G U41C U43C C44U U51A C62U U72A | 0.17 |
| A35G U41C U48C | 1.18 |
| A35G U41C U48C A56G U60C A77U | 0.3 |
| A35G U41C U49C G52A C62U U74A | 0.23 |
| A35G U41C U51C A56G U74C A77G | 1.45 |
| A35G U41C U66C U78C | 1.12 |
| A35G U41C U69C | 1.06 |
| A35G U41C U76G | 1.29 |
| A35G U41G A64G U72C | 0.38 |
| A35G U43A A56U | 1.41 |
| A35G U43A C44U U49A U69A | 0.24 |
| A35G U43A U48C A64U | 0.99 |
| A35G U43A U54A U72C | 1.35 |
| A35G U43A U54C A64U U67C | 0.2 |
| A35G U43A U54G U78C U80A | 1.28 |
| A35G U43A U60C | 0.83 |
| A35G U43A U67C | 0.31 |
| A35G U43A U69A | 0.69 |
| A35G U43A U72C | 1.24 |
| A35G U43A U78G | 1.29 |
| A35G U43A U80C | 1.28 |
| A35G U43C A45U | 0.58 |
| A35G U43C A56G | 1.06 |

| Variant | self-cleavage |
| --- | --- |
| A35G U43C A56G A65U | 0.25 |
| A35G U43C A56G C62U | 0.2 |
| A35G U43C A57G | 1.24 |
| A35G U43C G46A A56G | 0.17 |
| A35G U43C G70C | 0.2 |
| A35G U43C U49A | 0.82 |
| A35G U43C U54C A64U | 0.5 |
| A35G U43C U54C U60A U76C | 0.44 |
| A35G U43C U67C U69C U74C | 0.15 |
| A35G U43C U69C U76A U80A | 0.9 |
| A35G U43G U48C U69C | 0.07 |
| A35G U48A U54A | 1.09 |
| A35G U48C A56G U58C U67C | 0.41 |
| A35G U48C A56G U60C G63A U74A | 0.49 |
| A35G U48C A57G | 1.25 |
| A35G U48C A57G U60A U66C A75G U78C | 0.37 |
| A35G U48C U51C | 1.06 |
| A35G U48C U51G | 0.96 |
| A35G U48C U60C A64G U74C U80A | 0.64 |
| A35G U48C U69C | 0.73 |
| A35G U48C U72C G73A U76C U80C | 1.24 |
| A35G U49A G61A A64U | 0.31 |
| A35G U49A G73A | 1.27 |
| A35G U49A U51A A56G | 1.05 |

| Variant | self-cleavage |
| --- | --- |
| A35G U49A U72A | 0.92 |
| A35G U49C A56G C62U | 0.13 |
| A35G U49C A56U | 0.94 |
| A35G U49C G52A | 1.09 |
| A35G U49C U60A U74A | 0.21 |
| A35G U49C U67A | 0.47 |
| A35G U49C U67C | 0.29 |
| A35G U49C U69C | 0.45 |
| A35G U49C U72A | 0.67 |
| A35G U49C U76C | 0.95 |
| A35G U49C U76C U78C | 1.09 |
| A35G U51A A56G A57C | 0.85 |
| A35G U51A A56G U67C | 0.52 |
| A35G U51A A64G U80C | 1.27 |
| A35G U51A A77G | 1.28 |
| A35G U51A U60C | 1.08 |
| A35G U51A U67C | 0.84 |
| A35G U51A U67C U78C | 0.94 |
| A35G U51A U78A | 1.31 |
| A35G U51C A56G | 1.34 |
| A35G U51C A65G | 1.04 |
| A35G U51C C62G A65G | 0.7 |
| A35G U51C U54C A57G U58C G73A | 0.72 |
| A35G U51C U66C A77G | 1.11 |

| Variant | self-cleavage |
| --- | --- |
| A35G U51C U67C U74C U80C | 0.92 |
| A35G U51C U72A | 1.26 |
| A35G U51C U74C | 1.27 |
| A35G U51G U58C | 1.07 |
| A35G U51G U60A A64G A65G U69C | 0.7 |
| A35G U54A U60G A65U C71A | 0.89 |
| A35G U54C A57G U66A | 1.12 |
| A35G U54C A64G | 1.39 |
| A35G U54C A64G U80A | 1.28 |
| A35G U54C U60C A64G | 0.62 |
| A35G U54C U60C U69A | 0.49 |
| A35G U54C U67A | 0.72 |
| A35G U54C U69C U76A U80A | 1.3 |
| A35G U58A U72C | 0.98 |
| A35G U58C A64G | 1.38 |
| A35G U58C C81U | 1.17 |
| A35G U58C U69A | 0.79 |
| A35G U60A A65G U80C | 0.82 |
| A35G U60A U67A | 0.71 |
| A35G U60A U67C | 0.66 |
| A35G U60C A65U U72C | 0.45 |
| A35G U60C A77U | 1.05 |
| A35G U60C U67A | 0.79 |
| A35G U60C U67C C68U U78C | 0 |

| Variant | self-cleavage |
| --- | --- |
| A35G U60C U78C | 1.03 |
| A35G U66C U69A | 0.71 |
| A35G U67A U72C | 1.21 |
| A35G U67A U80C | 1.48 |
| A35G U67C C68A U74C | 1.06 |
| A35G U69A U80A | 0.98 |
| A35G U69C A77U | 1.06 |
| A35G U69C U78C | 1.24 |
| A35G U72A U74C | 1.31 |
| A35G U72A U76G A77G | 1.32 |
| A35G U72A U80C | 1.22 |
| A35G U72C A75G | 1.54 |
| A35G U74A U78C | 1.31 |
| A35G U78A U80A | 1.31 |
| A35G U78C U80C | 1.31 |
| A35G U80A C81U | 1.28 |
| A35G U80C C81U | 1.26 |
| A35U A45C A47U U76A U78A | 0.07 |
| A35U A45C U54C A65U | 0.1 |
| A35U A45G A47G U72C | 0.35 |
| A35U A45G A64G | 0.22 |
| A35U A45G A64U G73A U78C | 0.18 |
| A35U A45G G63U | 0.38 |
| A35U A45G U48C A57G U69A U72A | 0.04 |

| Variant | self-cleavage |
| --- | --- |
| A35U A45G U48C U51C U58C U69A A77U | 0.03 |
| A35U A45G U48C U67C U78A U80A | 0.06 |
| A35U A45G U48C U72A | 0.12 |
| A35U A45G U49C | 0.18 |
| A35U A45G U69G | 0.14 |
| A35U A45U A57G A75G | 0.11 |
| A35U A45U A75U | 0.45 |
| A35U A45U C62A | 0.14 |
| A35U A45U U54A U60A G63U U66C | 0.11 |
| A35U A45U U60G | 0.45 |
| A35U A45U U69A | 0.12 |
| A35U A45U U69C U74C | 0.14 |
| A35U A47C U54A C62A U72C | 0.06 |
| A35U A47G A64G | 0.48 |
| A35U A47G C59A U66A U72C | 0.05 |
| A35U A47G C62U A64G U69A | 0.13 |
| A35U A47G U72C | 0.62 |
| A35U A47G U78C | 0.46 |
| A35U A56C U66C A75G | 0.11 |
| A35U A56C U72C | 0.13 |
| A35U A56G A57G U67A C68U | 0.06 |
| A35U A56G A57U | 0.44 |
| A35U A56G A64C | 0.15 |
